# Experimental data taken from the supplement of paper PMC8728848.
# Some of the results follow.
# B1: AAA (Anguilla anguilla), Q7SIC1 (protein)
# chain: VIPEGYTQENVAVRGKATQSAQLRGEHAANSEASNAIDGNRDSNFYHGSCTHSSGQANPWWRVDLLQVYTITSVTITNRGDCCGERISGAEINIGQHLASNGVNNPECSVIGSMATGETKTFHCPAPMIGRYVVTYLPTSESLHLCEVEVNVDKPAAA
# Key:
# Assay in all cases: glycan array binding signal (z-score within array); higher = stronger binding
# Conditions in all cases: glycan notation: IUPAC condensed, linker removed
# [1] = molecular target: Neu5Ac(a2-3)Gal6S(b1-4)[Fuc(a1-3)]GlcNAc
# How it was run: (§1)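 Arrays were curated from the Consortium for Functional Glycomics database, 3228 in total, and kept only where the protein sequence was available. Binding is expressed as a within-array Z-score. This score was averaged across arrays of the same protein sequence at different concentrations or buffers and across linkers, and negative values can be read as non-binding.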
# Neu5Ac(a2-3)GalNAc = molecular target: Neu5Ac(a2-3)GalNAc
# How it was run: as §1
# [2] = molecular target: Neu5Ac(a2-3)GalNAc(b1-4)GlcNAc
# How it was run: as §1
# [3] = molecular target: Neu5Ac(a2-3)[GalNAc(b1-4)]Gal(b1-4)Glc
# How it was run: as §1
# [4] = molecular target: Neu5Ac(a2-3)[GalNAc(b1-4)]Gal(b1-4)GlcNAc
# How it was run: as §1
# [5] = molecular target: Neu5Ac(a2-3)[GalNAc(b1-4)]Gal(b1-4)GlcNAc(b1-3)GalNAc
# How it was run: as §1
# [6] = molecular target: Neu5Ac(a2-3)[Neu5Ac(a2-6)]GalNAc
# How it was run: as §1
# Neu5Ac(a2-6)Gal = molecular target: Neu5Ac(a2-6)Gal
# How it was run: as §1
# [7] = molecular target: Neu5Ac(a2-6)Gal(b1-3)GlcNAc(b1-3)[Gal(b1-4)GlcNAc(b1-6)]Gal(b1-4)Glc
# How it was run: as §1
# Neu5Ac(a2-6)Gal(b1-4)Glc = molecular target: Neu5Ac(a2-6)Gal(b1-4)Glc
# How it was run: as §1
# [8] = molecular target: Neu5Ac(a2-6)Gal(b1-4)GlcNAc
# How it was run: as §1
# [9] = molecular target: Neu5Ac(a2-6)Gal(b1-4)GlcNAc(b1-2)Man
# How it was run: as §1
# [10] = molecular target: Neu5Ac(a2-6)Gal(b1-4)GlcNAc(b1-2)Man(a1-3)Man(b1-4)GlcNAc(b1-4)GlcNAc
# How it was run: as §1
# [11] = molecular target: Neu5Ac(a2-6)Gal(b1-4)GlcNAc(b1-2)Man(a1-3)[Gal(b1-4)GlcNAc(b1-2)Man(a1-6)]Man(b1-4)GlcNAc(b1-4)GlcNAc
# How it was run: as §1
# [12] = molecular target: Neu5Ac(a2-6)Gal(b1-4)GlcNAc(b1-2)Man(a1-3)[GlcNAc(b1-2)Man(a1-6)]Man(b1-4)GlcNAc(b1-4)GlcNAc
# How it was run: as §1
# [13] = molecular target: Neu5Ac(a2-6)Gal(b1-4)GlcNAc(b1-2)Man(a1-3)[GlcNAc(b1-4)][Neu5Ac(a2-6)Gal(b1-4)GlcNAc(b1-2)Man(a1-6)]Man(b1-4)GlcNAc(b1-4)GlcNAc
# How it was run: as §1
# [14] = molecular target: Neu5Ac(a2-6)Gal(b1-4)GlcNAc(b1-2)Man(a1-3)[Man(a1-6)]Man(b1-4)GlcNAc(b1-4)GlcNAc
# How it was run: as §1
# [15] = molecular target: Neu5Ac(a2-6)Gal(b1-4)GlcNAc(b1-2)Man(a1-3)[Neu5Ac(a2-3)Gal(b1-4)GlcNAc(b1-2)Man(a1-6)]Man(b1-4)GlcNAc(b1-4)GlcNAc
# How it was run: as §1
# [16] = molecular target: Neu5Ac(a2-6)Gal(b1-4)GlcNAc(b1-2)Man(a1-3)[Neu5Ac(a2-6)Gal(b1-4)GlcNAc(b1-2)Man(a1-6)]Man(b1-4)GlcNAc(b1-4)GlcNAc
# How it was run: as §1
# [17] = molecular target: Neu5Ac(a2-6)Gal(b1-4)GlcNAc(b1-2)Man(a1-3)[Neu5Ac(a2-6)Gal(b1-4)GlcNAc(b1-2)Man(a1-6)]Man(b1-4)GlcNAc(b1-4)[Fuc(a1-6)]GlcNAc
# How it was run: as §1
# [18] = molecular target: Neu5Ac(a2-6)Gal(b1-4)GlcNAc(b1-2)Man(a1-6)Man(b1-4)GlcNAc(b1-4)GlcNAc
# How it was run: as §1
# [19] = molecular target: Neu5Ac(a2-6)Gal(b1-4)GlcNAc(b1-2)Man(a1-6)[Gal(b1-4)GlcNAc(b1-2)Man(a1-3)]Man(b1-4)GlcNAc(b1-4)GlcNAc
# How it was run: as §1
# [20] = molecular target: Neu5Ac(a2-6)Gal(b1-4)GlcNAc(b1-2)Man(a1-6)[GlcNAc(b1-2)Man(a1-3)]Man(b1-4)GlcNAc(b1-4)GlcNAc
# How it was run: as §1
# [21] = molecular target: Neu5Ac(a2-6)Gal(b1-4)GlcNAc(b1-2)Man(a1-6)[Man(a1-3)]Man(b1-4)GlcNAc(b1-4)GlcNAc
# How it was run: as §1
# [22] = molecular target: Neu5Ac(a2-6)Gal(b1-4)GlcNAc(b1-2)[Neu5Ac(a2-6)Gal(b1-4)GlcNAc(b1-4)]Man(a1-3)[GlcNAc(b1-4)][Neu5Ac(a2-6)Gal(b1-4)GlcNAc(b1-2)[Neu5Ac(a2-6)Gal(b1-4)GlcNAc(b1-6)]Man(a1-6)]Man(b1-4)GlcNAc(b1-4)GlcNAc
# How it was run: as §1
# [23] = molecular target: Neu5Ac(a2-6)Gal(b1-4)GlcNAc(b1-2)[Neu5Ac(a2-6)Gal(b1-4)GlcNAc(b1-4)]Man(a1-3)[GlcNAc(b1-4)][Neu5Ac(a2-6)Gal(b1-4)GlcNAc(b1-4)Man(a1-6)]Man(b1-4)GlcNAc(b1-4)GlcNAc
# How it was run: as §1
# [24] = molecular target: Neu5Ac(a2-6)Gal(b1-4)GlcNAc(b1-2)[Neu5Ac(a2-6)Gal(b1-4)GlcNAc(b1-6)]Man(a1-6)[Neu5Ac(a2-6)Gal(b1-4)GlcNAc(b1-2)Man(a1-3)][GlcNAc(b1-4)]Man(b1-4)GlcNAc(b1-4)GlcNAc
# How it was run: as §1
# [25] = molecular target: Neu5Ac(a2-6)Gal(b1-4)GlcNAc(b1-3)Gal(b1-3)GlcNAc
# How it was run: as §1
# [26] = molecular target: Neu5Ac(a2-6)Gal(b1-4)GlcNAc(b1-3)Gal(b1-4)GlcNAc
# How it was run: as §1
# [27] = molecular target: Neu5Ac(a2-6)Gal(b1-4)GlcNAc(b1-3)Gal(b1-4)GlcNAc(b1-2)Man(a1-3)[Neu5Ac(a2-6)Gal(b1-4)GlcNAc(b1-3)Gal(b1-4)GlcNAc(b1-2)Man(a1-6)]GalNAc
# How it was run: as §1
# [28] = molecular target: Neu5Ac(a2-6)Gal(b1-4)GlcNAc(b1-3)Gal(b1-4)GlcNAc(b1-3)Gal(b1-4)GlcNAc
# How it was run: as §1
# [29] = molecular target: Neu5Ac(a2-6)Gal(b1-4)GlcNAc(b1-3)Gal(b1-4)GlcNAc(b1-3)Gal(b1-4)GlcNAc(b1-2)Man(a1-3)[Neu5Ac(a2-6)Gal(b1-4)GlcNAc(b1-3)Gal(b1-4)GlcNAc(b1-3)Gal(b1-4)GlcNAc(b1-2)Man(a1-6)]GalNAc
# How it was run: as §1
# [30] = molecular target: Neu5Ac(a2-6)Gal(b1-4)GlcNAc(b1-3)Gal(b1-4)GlcNAc(b1-3)GalNAc
# How it was run: as §1
# [31] = molecular target: Neu5Ac(a2-6)Gal(b1-4)GlcNAc(b1-3)Gal(b1-4)GlcNAc(b1-3)[Neu5Ac(a2-6)Gal(b1-4)GlcNAc(b1-3)Gal(b1-4)GlcNAc(b1-6)]GalNAc
# How it was run: as §1
# [32] = molecular target: Neu5Ac(a2-6)Gal(b1-4)GlcNAc(b1-3)Gal(b1-4)GlcNAc(b1-6)[Gal(b1-3)]GalNAc
# How it was run: as §1
# [33] = molecular target: Neu5Ac(a2-6)Gal(b1-4)GlcNAc(b1-3)Gal(b1-4)[Fuc(a1-3)]GlcNAc(b1-3)Gal(b1-4)[Fuc(a1-3)]GlcNAc
# How it was run: as §1
# [34] = molecular target: Neu5Ac(a2-6)Gal(b1-4)GlcNAc(b1-3)GalNAc
# How it was run: as §1
# [35] = molecular target: Neu5Ac(a2-6)Gal(b1-4)GlcNAc(b1-3)[Neu5Ac(a2-6)Gal(b1-4)GlcNAc(b1-6)]GalNAc
# How it was run: as §1
# [36] = molecular target: Neu5Ac(a2-6)Gal(b1-4)GlcNAc(b1-6)GalNAc
# How it was run: as §1
# [37] = molecular target: Neu5Ac(a2-6)Gal(b1-4)GlcNAc(b1-6)[Gal(b1-3)GlcNAc(b1-3)]Gal(b1-4)Glc
# How it was run: as §1
# [38] = molecular target: Neu5Ac(a2-6)Gal(b1-4)GlcNAc(b1-6)[Gal(b1-3)]GalNAc
# How it was run: as §1
# [39] = molecular target: Neu5Ac(a2-6)Gal(b1-4)GlcNAc6S
# How it was run: as §1
# Neu5Ac(a2-6)GalNAc = molecular target: Neu5Ac(a2-6)GalNAc
# How it was run: as §1
# [40] = molecular target: Neu5Ac(a2-6)GalNAc(b1-4)GlcNAc
# How it was run: as §1
# [41] = molecular target: Neu5Ac(a2-6)GalNAc(b1-4)GlcNAc6S
# How it was run: as §1
binder,measurement,setting,value
B1,glycan array binding signal (z-score),[1],-0.149
same,glycan array binding signal (z-score),Neu5Ac(a2-3)GalNAc,-0.283
same,glycan array binding signal (z-score),[2],-0.131
same,glycan array binding signal (z-score),[3],-0.131
same,glycan array binding signal (z-score),[4],-0.265
same,glycan array binding signal (z-score),[5],0.511
same,glycan array binding signal (z-score),[6],-0.516
same,glycan array binding signal (z-score),Neu5Ac(a2-6)Gal,-0.203
same,glycan array binding signal (z-score),[7],-0.118
same,glycan array binding signal (z-score),Neu5Ac(a2-6)Gal(b1-4)Glc,-0.134
same,glycan array binding signal (z-score),[8],-0.147
same,glycan array binding signal (z-score),[9],-0.26
same,glycan array binding signal (z-score),[10],-0.162
same,glycan array binding signal (z-score),[11],-0.121
same,glycan array binding signal (z-score),[12],-0.131
same,glycan array binding signal (z-score),[13],-0.297
same,glycan array binding signal (z-score),[14],-0.147
same,glycan array binding signal (z-score),[15],-0.232
same,glycan array binding signal (z-score),[16],-0.44
same,glycan array binding signal (z-score),[17],-0.096
same,glycan array binding signal (z-score),[18],-0.176
same,glycan array binding signal (z-score),[19],-0.183
same,glycan array binding signal (z-score),[20],-0.127
same,glycan array binding signal (z-score),[21],-0.316
same,glycan array binding signal (z-score),[22],-0.255
same,glycan array binding signal (z-score),[23],-0.208
same,glycan array binding signal (z-score),[24],-0.245
same,glycan array binding signal (z-score),[25],-0.285
same,glycan array binding signal (z-score),[26],-0.202
same,glycan array binding signal (z-score),[27],0.057
same,glycan array binding signal (z-score),[28],-0.232
same,glycan array binding signal (z-score),[29],0.731
same,glycan array binding signal (z-score),[30],-0.256
same,glycan array binding signal (z-score),[31],1.69
same,glycan array binding signal (z-score),[32],0.092
same,glycan array binding signal (z-score),[33],-0.184
same,glycan array binding signal (z-score),[34],-0.181
same,glycan array binding signal (z-score),[35],-0.149
same,glycan array binding signal (z-score),[36],-0.18
same,glycan array binding signal (z-score),[37],-0.182
same,glycan array binding signal (z-score),[38],0.153
same,glycan array binding signal (z-score),[39],0.298
same,glycan array binding signal (z-score),Neu5Ac(a2-6)GalNAc,-0.098
same,glycan array binding signal (z-score),[40],-0.085
same,glycan array binding signal (z-score),[41],-0.189
